# Assay results reported in the supplement of paper PMC3334620.
# The full ranking holds about 33,000 sequences; the median of “E-score (-0.5 to 0.5)” is about -0.016, and the highest 2% start at about 0.32. The list shows a part of the results.
# Target: T1, Stp1 (UniProt B3LFK1)
# T1 sequence: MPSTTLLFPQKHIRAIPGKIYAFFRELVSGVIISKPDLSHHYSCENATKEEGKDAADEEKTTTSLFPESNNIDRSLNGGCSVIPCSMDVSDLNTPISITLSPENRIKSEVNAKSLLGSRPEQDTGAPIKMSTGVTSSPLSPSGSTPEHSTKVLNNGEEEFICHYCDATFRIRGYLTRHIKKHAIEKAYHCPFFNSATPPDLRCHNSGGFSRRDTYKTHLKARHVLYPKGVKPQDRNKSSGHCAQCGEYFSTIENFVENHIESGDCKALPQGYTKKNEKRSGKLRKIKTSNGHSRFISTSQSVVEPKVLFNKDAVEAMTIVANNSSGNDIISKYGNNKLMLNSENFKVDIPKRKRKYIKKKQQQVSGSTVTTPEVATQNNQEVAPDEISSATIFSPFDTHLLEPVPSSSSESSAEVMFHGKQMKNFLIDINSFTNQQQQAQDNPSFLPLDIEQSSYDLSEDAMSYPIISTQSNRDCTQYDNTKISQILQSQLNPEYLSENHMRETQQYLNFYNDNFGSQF
# Experiment: PBM E-score (8-mer binding enrichment) (E-score (-0.5 to 0.5)); higher = stronger / more preferred TF binding; most listed sequences are background and not binding sites
# Conditions: protein concentration: 200 nM; construct: GST-full length
# Procedure, shortened: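 PURExpress in vitro transcription/translation supplied GST-tagged yeast transcription factors, either full-length or DNA-binding domain. Applied at about 100-200 nM to universal all-10-mer Agilent arrays double-stranded by primer extension, the bound protein was detected with fluorescent anti-GST. E-scores, modified Wilcoxon-Mann-Whitney statistics, were given by the Universal PBM Analysis Suite to ungapped eight-base words pooled with their reverse complements after masliner normalisation.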
row,Sequence,PBM E-score
1,CACGTTGA,0.138
2,GGTTCGGA,-0.131
3,GCGGCACA,0.463
4,GACCCGGC,-0.102
5,ACCTCGGA,-0.0499
6,AAGCGAGA,-0.176
7,CCAAGAGA,-0.104
8,AGATGCGA,-0.0861
9,CTCCGGGA,-0.313
10,CCAGTGGA,-0.202
11,CCGACAAG,-0.00255
12,CCCTCTCC,-0.29
13,ATATGTGA,0.0699
14,AGTTGAAA,0.103
15,CGTTTTGA,0.204
16,CATCTGCG,0.0364
17,GTTGAAAC,0.0158
18,TGGCACAA,0.0994
19,ATAACTGA,0.152
20,CTGTGCGC,-0.0119
21,TACCTAAA,0.0628
22,GGGCGGAC,-0.171
23,AGGTTCAA,0.0944
24,ATAGTAGG,0.0599

row,Sequence,PBM E-score
1,CTTCACAC,0.0403
2,AAGAAGCC,0.232
3,CGAGATTA,0.214
4,TCGTGGAA,0.0221
5,AGACTCTC,-0.235
6,CCATTAAC,0.0496
7,ACATTACT,0.0555
8,GAGTAATA,0.131
9,CCAGAAGC,-0.16
10,TAATCTAA,0.145
11,GATACGGC,0.463
12,CTAATACA,0.00443
13,GCACACGC,0.128
14,AAATAACA,0.197
15,AAGACCCA,-0.363
16,AGTGGGAT,-0.0645
17,CCTTCCCA,0.00934
18,CGGTGAAG,0.011
19,ACGTCAGA,-0.183
20,CTGGACTC,-0.0665
21,AAGCCTTC,-0.101
22,GTATCATA,0.29
23,CCATCAAA,0.0475
24,CAGATCAA,-0.151

row,Sequence,PBM E-score
1,GCCAAGCA,-0.215
2,ATAGCCCC,-0.275
3,AATTTTAG,-0.0369
4,AGTGCGGC,0.379
5,ATACGCTC,0.0237
6,CTACTCTC,-0.215
7,GGCCTATA,-0.302
8,CCATCGCA,0.0484
9,AGAAATTG,0.171
10,ACCTTCAA,-0.118
11,ACGAGCAC,0.113
12,CAAGTCGC,-0.159
13,CCATCTCA,0.087
14,CGGGTACA,-0.00526
15,CGCCCGCG,0.14
16,CACCGTAG,-0.0209
17,ACTCCTAT,-0.00224
18,CCTTTCGC,0.0733
19,CGTTGGTC,-0.0686
20,CACGGGCC,-0.0191
21,TAGAACAA,-0.14
22,CACGACTA,-0.18
23,GCTAGCCA,-0.279
24,GTTACCGA,-0.131

row,Sequence,PBM E-score
1,CTCTATGC,-0.00112
2,GCAACTAC,-0.00806
3,CGAGGAGC,-0.0887
4,TCCAGCGA,-0.151
5,AACAACTA,0.0535
6,CACCTCCG,-0.0858
7,CACTAGAA,-0.028
8,CGAATTTC,0.134
9,CCTTTGGC,-0.137
10,ATCTAGCG,-0.0611
11,AGTGGACA,-0.157
12,AGTTCAGG,-0.268
13,CGGGATAA,-0.021
14,CCGTGGAC,0.192
15,CACAAACG,0.207
16,GTCCGAAC,0.00676
17,AGGGGCAC,-0.0132
18,CGCGTATA,0.0732
19,CGGATTAA,0.0648
20,AGGTGCGC,-0.0265
21,ATGTTGTC,0.119
22,CGAACCCC,-0.24
